Laboratory results published in the supplement of paper PMC3334620.
In all, about 33,000 sequences were measured (“E-score (-0.5 to 0.5)”: median about -0.04, highest 2% from about 0.36 on). This is one part of the list.

molecular target: T1, Hmlalpha2 (UniProt P0CY09); assay: PBM E-score (8-mer binding enrichment) (E-score (-0.5 to 0.5)); higher = stronger / more preferred TF binding; most listed sequences are background and not binding sites; settings: protein concentration: 200 nM; construct: GST-full length
T1 sequence: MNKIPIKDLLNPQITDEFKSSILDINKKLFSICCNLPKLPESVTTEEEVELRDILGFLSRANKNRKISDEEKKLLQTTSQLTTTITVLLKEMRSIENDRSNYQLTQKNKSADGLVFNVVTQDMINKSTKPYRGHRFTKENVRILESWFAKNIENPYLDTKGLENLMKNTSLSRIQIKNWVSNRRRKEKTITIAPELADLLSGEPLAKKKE
Summary of the method: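 Yeast transcription factors, full-length or as DNA-binding domains, were expressed with a GST tag using PURExpress in vitro transcription/translation. At about 100-200 nM they were applied to universal all-10-mer Agilent arrays, double-stranded by primer extension on fresh or once-stripped slides. Fluorescent anti-GST detected bound protein, and masliner normalised the scans. E-scores for ungapped eight-base words, pooled with reverse complements, came from the Universal PBM Analysis Suite.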

Sequence	PBM E-score
AAACGAAT	-0.00184
AGAACGAC	-0.0288
AGCGTCTG	-0.139
ACCCTTAG	-0.182
ATCGTTCC	-0.186
TATTCAGA	0.0759
AAACGTAA	0.263
ATATCACA	0.0488
CAAGGGAC	-0.162
CACGGGTA	0.195
AGATGGTA	-0.083
CTGCTAAA	0.0291
AGTTACAT	0.328
GCGGGACA	-0.186
CGTGGCGC	-0.0659
CCTCCGAG	-0.17
TGCAAGAA	0.0679
GGATCGGA	-0.0748
GAATGGAA	-0.00121
AAGGGTAA	0.0848
GATGGTCA	-0.156
ACACGAGG	0.292

Sequence	PBM E-score
CCGAACGC	-0.0948
CCAGAGGA	-0.239
AAATCAGG	0.0012
CGAAATCG	-0.15
CTTAGATC	0.0435
CTGAACAA	0.173
CATGGACG	0.182
CGCGCCGC	-0.073
CGCTCCCG	-0.155
CTGTGCCA	-0.199
ACCAACCC	-0.0009
ACAGCTGA	-0.118
ACGTCGGA	-0.0511
AGAATTAT	-0.0484
AACGCGTG	0.336
CTTAAAAA	0.0134
CTTCCTCC	-0.189
AGGTTCAG	-0.00896
AAGTCACC	-0.166
CTAAGCTA	-0.00389
ACTGCTCC	-0.213
AGTCGGGC	-0.164

Sequence	PBM E-score
GGAGCTGA	-0.183
AAGCAGTG	0.0709
GGCCACAA	-0.171
CGAAGCCC	-0.277
GAAACGGA	-0.0438
CGCAGGCC	0.00482
CGCAGCGA	0.00923
CGCGCGTC	0.0779
ATTGTCGC	-0.00639
ATATGAGG	-0.303
ACGAAAAA	0.0311
CCTCTATA	-0.127
CCCCGCAG	-0.288
CCGGCACG	-0.217
GGGTCCCA	-0.209
CTCGAGGC	-0.131
AAAGCTAG	-0.129
CGGCTAAG	-0.215
ACTGTATG	0.00437
CGGCCAGA	-0.359
ACGGCTAG	-0.122
AACCCATT	-0.0724

Sequence	PBM E-score
CCTGATGC	-0.144
GGTGACTA	-0.09
AAGAGTCG	0.0691
AGGTGACG	-0.11
ATTGAACA	0.232
ATACCCAG	-0.12
CCCGAGAA	-0.0896
GGGATCCA	-0.225
CACGTCAC	0.0306
CGTGTAGA	0.482
TGCGAGCA	-0.176
CAATATAA	0.0938
ATATAACG	0.216
CGTACGGC	-0.0963
GCACCTGA	-0.0306
GCAAGGAC	-0.181
AAGACAAC	0.241
GCGGAAAA	-0.0324
ACCATGAC	-0.0635
AAGTCTAG	-0.224
ACACAGTA	0.36
ATTTGACC	-0.0936

Sequence	PBM E-score
ACCCTGAT	-0.3
AACGATGG	-0.18
ACAGAACT	0.0437
AATCTAAA	0.0624
CTGATATC	0.0543
AGATGAGA	-0.162
ATCACCAC	-0.042
ATAAGGGC	-0.153
AGGCAAAC	-0.16
ACTTAGCG	0.0588
CAGTAGTC	-0.173
ACTTTGAA	0.0483
GTCGAACA	0.199
CACCGCTC	-0.191
ATGATATG	0.122
GTGCACGA	-0.0711
CAGAGAGG	-0.35
GGAGTGAC	0.0734
CCTTCTCG	-0.0763
CCAGGGAG	-0.326
ATTGACTA	-0.053
CTCTTGGA	-0.0492
